Data on 7 molecules can be found in patent publication US20220339156A1, “COMPOSITIONS AND METHODS FOR TREATMENT OF DISORDERS ASSOCIATED WITH CLEC16A DYSFUNCTION OR LOSS” (THE CHILDREN'S HOSPITAL OF PHILADELPHIA, priority 2019, published 2022).

Read-outs that look alike come from different tables or passages of the source.

In test [1] the test system is SOCS3. As to the kind of experiment: RT-PCR for SOCS3 expression in gWAT of control, KO and tofacitinib-treated KO mice. It counts as in vivo. The note with it: between groups. The text has this: (§1) To address the underlying mechanism behind the tofacitinib effect, we first performed RT-PCR for SOCS1 and SOCS3 expression and immunoblot analysis on gWAT isolated from controls, Clec16a KO and Clec16a KO tofacitinib-treated mice. We evaluated p-HSL, p-STAT1, p-STAT3, SOCS-1, AMPK, mTOR, P62 and LC3I/II and ER stress (FIG. 10 C-F).

Test [2] relates to UBC-Cre-Clec16aloxP KO mice. The test can be described thus: Treatment of inducible Clec16a KO mice: fat/weight loss, lipodystrophic phenotype, survival.
The test system of test [3] is cytokines and chemokines. As to the kind of experiment: Plasma cytokine/chemokine profiling with Mouse Cytokine Array panel. The test is classed as in vivo. The note with it: treated KO mice vs Clec16a KO alone. The text has this:
FIGS. 10A-10I. […] SOCS1 (FIG. 10G) and SOCS3 (FIG. 10H) expression by RT-PCR in control, KO±tofacitinib mice. […] The representative graph is quantification of cytokines and chemokine from plasma of Control (Vehicle), KO and KO+Tofacitinib inhibitor treated mice using the Mouse Cytokine Array panel.
To gain insight in the inflammatory mechanism involved in the development, progression and pathogenesis of various autoimmune diseases, we profiled plasma from control, KO and U0126-treated KO mice for cytokines and chemokine using Mouse Cytokine Array panel.

Test [4] has as its system Clec16a^ΔUBC KO mice. The test can be described thus: Neuronal tissues and neuronal phenotype of tofacitinib-treated Clec16a KO mice. It counts as in vivo. The text has this: This may be due to the negative feedback loop associated with JAK/STAT/SOC1 signaling.
In test [5] the test system is SOCS1. The test can be described thus: RT-PCR for SOCS1 expression in gWAT of control, KO and tofacitinib-treated KO mice. It counts as in vivo. The note with it: treated KO vs Clec16a KO mice.
Description: as §1

Test [6] relates to p-HSL, p-STAT1, p-STAT3, AMPK, ACC, mTOR, P62, LC3I/II, ER stress proteins, COX-2, p-IkBα. As to the kind of experiment: Immunoblot analysis on gWAT of control, Clec16a KO and tofacitinib-treated KO mice. It counts as in vivo.
Description: as §1
Another downstream effector of AMPK is mTOR signaling that regulates a plethora of functions, including autophagy. […] We also evaluated for lipolytic and ER stress rescue in tofacitinib-treated KO mice (FIGS. 10-E, F). […] Increased cytokines/chemokine levels reflect upon the inflammatory mechanism utilized during the development, progression and pathogenesis of various autoimmune/inflammatory diseases.

Test [7] concerns JAK. The note with it: cited from earlier work.

As to `C[C@@H]1CCN(C(=O)CC#N)C[C@@H]1N(C)c1ncnc2[nH]ccc12` [tofacitinib], the SOCS3 expression result in test [1] is reported as “no significant difference”. Also, in test [2], the inflammatory phenotype entry is listed as “attenuated”. Besides, in test [2] (listed as Tofacitinib), the lipodystrophic phenotype entry is on record as “partially rescues” and the survival result is “improves survival”. The “fat and weight loss” value in test [2] (treated vs untreated KO) is given as “significantly attenuated”. For the same molecule, in test [3], the “upregulated inflammatory cytokines and chemokines” value is on record as “near complete reversal”. In test [4] (treated Clec16a KO mice), the “autophagy in neuronal tissues” value is on record as “rescued” and the neuronal phenotype result is on record as “did not alter”. The “STAT proteins in neuronal tissues” value in test [4] (treated vs untreated Clec16a^ΔUBC KO mice) is reported as “no significant change”. In addition, the “SOCS1 mRNA expression” value in test [5] was “significant reversal”. For the same molecule, in test [6] (adipose tissue immunoblot), the p-STAT1 result was “downregulating both p-STAT1 and p-STAT3 to control levels”; the p-STAT3 result was “downregulating both p-STAT1 and p-STAT3 to control levels”. In addition, the “autophagy defect (P62 accumulation)” value in test [6] (gWAT) is “correcting the autophagy defect”. In test [6] (gWAT immunoblot), the “ER stress proteins (GRP78, ATF6, p-IRE1α, XBP1 and CHOP)” value was “significant downregulation”; the “expression of COX-2” value is “reduced”; the “expression of p-IkBα” value was “reduced”; the p-AMPK result was “significantly reduced”. In addition, in test [6] (gWAT immunoblot), the p-HSL entry was “significant downregulation”, the “phosphorylation of ACC” value is listed as “promoted” and the “phosphorylation of mTOR” value is on record as “reversal”.

Take `CCCS(=O)(=O)N[C@H]1C[C@@H](N(C)c2ncnc3[nH]ccc23)C1` [PF-04965842]: the JAK selectivity entry in test [7] (as listed, no test described) was “JAK1”.

For the molecule `COc1nsc(NC(=O)N2C[C@H]3C[C@H](N(C)c4ncnc5[nH]ccc45)C[C@H]3C2)n1` [SHR0302], in test [7] (as listed, no test described), the JAK selectivity entry was “JAK1 > JAK2, JAK3”.

Take `N#CCC1(n2cc(-c3ncnc4[nH]ccc34)cn2)CN(C2CCN(C(=O)c3ccnc(C(F)(F)F)c3F)CC2)C1` [Itacitinib (INCB039110), Itacitinib]: the JAK selectivity entry in test [7] (as listed, no test described) is “JAK1”.

As to `CC1(C)CN(C(=O)c2ccc(-c3cccc4nc(NC(=O)C5CC5)nn34)cc2)C1` [Solcitinibb], in test [7] (as listed, no test described), the JAK selectivity result is listed as “JAK1”.

For `CC[C@@](C)(Nc1ccnc(-c2c[nH]c3ncccc23)n1)C(=O)NCC(F)(F)F` [Decemotiniba], in test [7] (as listed, no test described), the JAK selectivity entry was “JAK3”.

Turning to `O=C(Nc1nc2cccc(-c3ccc(CN4CCS(=O)(=O)CC4)cc3)n2n1)C1CC1` [Filgotinib], the JAK selectivity entry in test [7] is reported as “JAK1”.
